Measured values taken from paper PMC4336329 (PLoS ONE, 2015).
About 2,200 (0.71%) of roughly 310,000 compounds showed an effect of 50% or more. Effects have a minus sign here. Some of the results follow.

The compounds below were run against human ether-à-go-go-related gene (hERG) potassium channel (human, UniProt Q12809) (assay: primary screen, population patch clamp on CHO cells stably expressing hERG).
human ether-à-go-go-related gene (hERG) potassium channel, sequence (Q12809 whole entry, looked up): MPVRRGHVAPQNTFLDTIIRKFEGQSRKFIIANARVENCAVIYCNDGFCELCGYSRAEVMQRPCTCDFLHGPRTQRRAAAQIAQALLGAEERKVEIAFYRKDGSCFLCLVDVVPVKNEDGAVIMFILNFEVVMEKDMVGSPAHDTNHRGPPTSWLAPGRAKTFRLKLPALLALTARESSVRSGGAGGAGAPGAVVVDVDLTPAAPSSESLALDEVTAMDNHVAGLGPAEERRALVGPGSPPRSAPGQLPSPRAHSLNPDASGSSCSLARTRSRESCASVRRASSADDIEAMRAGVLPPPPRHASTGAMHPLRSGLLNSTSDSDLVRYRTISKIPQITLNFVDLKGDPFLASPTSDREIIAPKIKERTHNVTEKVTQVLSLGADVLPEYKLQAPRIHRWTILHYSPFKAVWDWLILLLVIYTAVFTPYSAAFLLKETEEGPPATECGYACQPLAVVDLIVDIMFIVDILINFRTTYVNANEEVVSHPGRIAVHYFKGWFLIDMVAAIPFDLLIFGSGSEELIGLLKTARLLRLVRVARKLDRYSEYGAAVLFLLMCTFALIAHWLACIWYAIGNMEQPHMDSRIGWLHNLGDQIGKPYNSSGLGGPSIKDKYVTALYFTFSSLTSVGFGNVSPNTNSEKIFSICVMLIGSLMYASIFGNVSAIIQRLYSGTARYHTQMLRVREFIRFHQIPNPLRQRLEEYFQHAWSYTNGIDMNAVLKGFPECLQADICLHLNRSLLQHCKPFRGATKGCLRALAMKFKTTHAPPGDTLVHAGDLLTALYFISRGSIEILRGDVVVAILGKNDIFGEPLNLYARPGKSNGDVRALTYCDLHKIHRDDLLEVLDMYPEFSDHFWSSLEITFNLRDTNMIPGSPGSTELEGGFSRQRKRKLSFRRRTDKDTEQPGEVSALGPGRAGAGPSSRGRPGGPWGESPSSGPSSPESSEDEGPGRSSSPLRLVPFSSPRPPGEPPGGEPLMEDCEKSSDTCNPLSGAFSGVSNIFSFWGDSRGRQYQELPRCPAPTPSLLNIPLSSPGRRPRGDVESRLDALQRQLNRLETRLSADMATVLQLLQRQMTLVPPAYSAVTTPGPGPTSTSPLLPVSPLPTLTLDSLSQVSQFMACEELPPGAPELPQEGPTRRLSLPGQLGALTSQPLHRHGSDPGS

Row | Compound | hERG current change (%, negative = inhibition) at 1uM [%]
1 | Cc1ccc(N(CCC#N)C(=O)COC(=O)c2ccccc2SCC(=O)N2CCCC2)cc1 | 15.2
2 | Cc1nn(CC(=O)NCCCN2C(C)CCCC2C)c(=O)c2cc3occc3n12 (stereo not shown) | 12.3
3 | Cc1cc(C(=O)CSc2nn3c(=O)c(C(C)(C)C)nnc3s2)c(C)n1-c1ccc(F)cc1 | -0.0322
4 | COc1cc2ccc(=O)oc2c2ccoc12 | 10.2
5 | O=C1CC(C(=O)N2CCOCC2)C2(CCCCC2)O1 (stereo not shown) | 19.6
6 | COc1ccc(OC)c(CNC(=O)c2coc(=O)c3ccccc23)c1 | 11.3
7 | CN(c1ccc(OCC(=O)NC2CCCC2)cc1)S(=O)(=O)c1cccs1 | -9.67
8 | O=C(O)CN1C(=O)C2C3C=CC(C2C1=O)C1C(=O)N(CC(=O)O)C(=O)C31 (stereo not shown) | 23.2
9 | Oc1ccccc1-c1nnc(SCCN2CCOCC2)n1Cc1ccccc1 | -7.71
10 | Cc1cccc(NC(=S)NCc2ccc3c(c2)cc(C)n3C)c1C | 5.83
11 | CCC(C)(C(=O)NC1CCCC1)N(C(=O)CNC(=O)c1ccccc1)c1c(C)n(C)n(-c2ccccc2)c1=O (stereo not shown) | 12.2
12 | COc1ccc(C(C(=O)NC2CCCC2)N(Cc2ccccc2)C(=O)CNC(=O)c2ccco2)cc1 (stereo not shown) | 3.95
13 | Cc1nc(SCC(=O)NC2CCCC2)[nH]c(=O)c1C | 6.4
14 | CCc1ccc(NC(=O)CN2C(=O)C(=O)N(Cc3ccccc3)C2=O)cc1 | 19.1
15 | Cc1ccc(O)c(NC(=O)c2ccccc2-c2ccccc2C(=O)O)c1 | 19.5
16 | Cc1c(C(=O)Nc2ccc(Cl)cc2)c2ccccn2c1CCc1ccncc1 | 21.1
17 | COC(=O)c1ccccc1OCCCOc1ccc(C)cc1OC | 2.61
18 | CCOc1ncccc1C(=O)OCC(=O)Nc1ccc2c(c1)OCCO2 | 7.16
19 | Cc1[nH]n2c(=O)c3c(nc2c1-c1ccccc1)CCCC3 | 7.56
20 | CCOc1ccc(/C=N/Nc2ccccn2)cc1 | 4.16
21 | CCOc1ccc(NC(=O)c2ccc(S(=O)(=O)N(C)C)cc2)cc1 | 17.2
22 | COCCNC(=S)N(CCN(C)C)Cc1cc2cc3c(cc2[nH]c1=O)OCO3 | 15.5
23 | COC(=O)/C(=N/Nc1ccccc1Cl)Sc1nnc(C(O)c2ccccc2)n1-c1ccccc1 (stereo not shown) | 9.28

Row | Compound | hERG current change (%, negative = inhibition) at 1uM [%]
24 | Cc1csc2ncc(C(=O)N3CCCc4ccccc43)c(=O)n12 | 11.5
25 | CCc1cc2c(cc(C(=O)O)n2C)s1 | 3.46
26 | O=S(=O)(O/N=C1\CCCc2ccccc21)c1ccccc1 | 8.01
27 | O=C1NC(=O)/C(=C\c2ccc(Oc3cnccn3)cc2)S1 | 5.89
28 | Cc1cc(C(=O)OCC(=O)NCc2ccco2)c(C)n1-c1ccc(F)cc1 | -4.89
29 | O=S(=O)(Nc1ccc(Cl)c(C(F)(F)F)c1)c1cnc[nH]1 | 9.43
30 | Cl.Clc1ccccc1CNCc1ccncc1 | 10.9
31 | CCc1nnc(NS(=O)(=O)c2ccc(NCc3cc(Cl)ccc3O)cc2)s1 | 14.1
32 | O=C(CNC(c1ccccc1)c1ccccc1)NCc1ccccc1Cl | 8.87
33 | Cc1nc(SCc2ccc(C#N)cc2)n[nH]1 | 19.7
34 | CCCOc1ccc(C(=O)OCC(=O)c2c(N)n(C)c(=O)n(C)c2=O)cc1OCC | 4.18
35 | Cc1ccc(S(=O)(=O)NC(CC(=O)NCc2ccco2)c2ccco2)cc1 (stereo not shown) | 7.16
36 | COc1ccc([N+](=O)[O-])cc1NC(=O)/C=C/C(=O)O | 0.808
37 | COc1ccccc1N1CCN(C(=O)C(C)NC(=O)c2cccc([N+](=O)[O-])c2)CC1 (stereo not shown) | 1.84
38 | CCc1cccc(OCCCN2C(=O)NC(C)(C)C2=O)c1 | 17.3
39 | COc1ccc(CN(C(=O)c2cc3ccccc3oc2=O)C2CCCCC2)cc1OC | -5.65
40 | Cc1[nH]c2ccccc2c1N=Nc1ccc(F)cc1 | 8.77
41 | CSc1ncccc1C(=O)OCc1nc2ccsc2c(=O)[nH]1 | 11.8
42 | Cc1nnc(-c2cccc(C(F)(F)F)c2)nc1N1CCOCC1 | -15.1
43 | CC(C)CNC(=O)c1oc2ccccc2c1COc1ccccc1 | 11
44 | CCCOC(=O)C1=C(C)NC2=C(C(=O)C(C(=O)OC)C(C)C2)C1c1ccc(N(CC)CC)cc1 (stereo not shown) | 9.1
45 | COc1ccc(CCNC(=O)c2cc(S(=O)(=O)N3CCCCC3)c[nH]2)cc1OC | 2.85
46 | O=C(CSc1n[nH]c(-c2ccncc2)n1)NC1CCS(=O)(=O)C1 (stereo not shown) | 8.21

Row | Compound | hERG current change (%, negative = inhibition) at 1uM [%]
47 | Cn1cccc1C(=O)N1CCN(S(=O)(=O)c2ccccc2)CC1 | 2.21
48 | Cc1ccc(C(=O)CSc2nc(C)cc(=O)[nH]2)cc1 | 5.28
49 | Cc1cc(C)c(C)c(S(=O)(=O)NCc2ccco2)c1C | -11.2
50 | CCO/C=C1/C(=O)N(C(C)=O)c2ccccc21 | 13.9
51 | CCN1CC(CN(C)Cc2cn(-c3ccc(C)cc3)nc2-c2ccc(F)cc2)CC1=O (stereo not shown) | 2.97
52 | CCCCN(C(=O)/C=C/c1ccco1)c1c(N)n(CCC)c(=O)[nH]c1=O | 12.2
53 | Cc1nc2c(c(C)c1C#N)C(=O)c1ccccc1-2 | 4.27
54 | CC1=C(C(=O)N2CCOCC2)C(c2ccccc2F)C2=C(CCCC2=O)N1 (stereo not shown) | 13.6
55 | CN(C)CCCOC(=O)CCc1ccccc1.Cl | 10.3
56 | O=C(Cn1c(=O)sc2ccccc21)Nc1ccccc1 | 11.2
57 | CSc1oc(-c2ccccc2)nc1C(N)=O | 3.41
58 | O=c1cc(CO)occ1OCc1ccccc1 | 10.2
59 | CCc1ccc(/C=C(/C#N)C(N)=S)cc1 | 7.17
60 | CCNC(=S)N/N=C(\C)c1cccc(C(F)(F)F)c1 | 25.6
61 | COc1cc(/C=N/NC(=O)C(=O)Nc2ccccn2)ccc1O | -5.79
62 | CCOC(=O)C1CCc2nc3ccccc3c(=O)n21 (stereo not shown) | 5.67
63 | CC(C)c1ccc(NC(=O)N2CCOCC2)cc1 | 15.6
64 | CC(=O)NC12CC3CC(C1)CC(C(=O)N(C)CC(=O)Nc1cccc(F)c1)(C3)C2 | 8.64
65 | CC(=O)N1CCOc2cc(S(=O)(=O)NC(C)c3ccccc3)c(Cl)cc21 (stereo not shown) | 9.56
66 | COc1ccc(/C=N/N=C2\SC(CC(=O)O)C(=O)N2c2ccccc2)cc1 (stereo not shown) | 19.2
67 | CCC(C)NC(=O)CC(c1ccc(OC)cc1)n1cccc1 (stereo not shown) | 1.65
68 | CCCOc1ccc(C(=O)CCNc2cccc(Cl)c2)cc1 | 21.7
69 | Cc1ccnc(NC(NC(=O)C(C)C)(C(F)(F)F)C(F)(F)F)c1 | 2.44

Row | Compound | hERG current change (%, negative = inhibition) at 1uM [%]
70 | COc1ccc(C(=O)NCCN2CCOCC2)cc1OC | 2.65
71 | CC1CN(c2ccc([N+](=O)[O-])cc2C(=O)N2CCOCC2)CC(C)N1 (stereo not shown) | 2.25
72 | N#Cc1cccc(NC(=O)c2nc(-c3ccccc3)n(-c3ccccc3)n2)c1 | -0.839
73 | Cc1ccc(-c2nnn3c2nc(NCCc2ccc(S(N)(=O)=O)cc2)c2ccccc23)cc1 | 9.82
74 | CCOc1ccc(-c2cc(N)n(S(=O)(=O)c3ccc(OC)c(OC)c3)n2)cc1 | 7.14
75 | O=C(Nc1ccc(F)cc1F)c1cc(-c2ccco2)nc2ccccc12 | 1.79
76 | COc1ccc(CCNC(=O)C(C)c2ccc([N+](=O)[O-])cc2)cc1 (stereo not shown) | -2.82
77 | CCN(CC)CCN(C(=O)c1ccc2c(c1)CCCC2)c1nc2ccc(OC)cc2s1.Cl | 3.48
78 | O=C(OCCN=C1NS(=O)(=O)c2ccccc21)C1CC(=O)N(c2ccc(Cl)cc2)C1 (stereo not shown) | 5.38
79 | COc1cc(/C=C/C(=O)O)cc(OC)c1OC | 8.73
80 | Cc1nn(CC(=O)N2CCCCCC2)c(=O)c2cc3occc3n12 | 15.5
81 | CC(=O)Nc1ccc(S(=O)(=O)Nc2nccc(/C=C/c3ccc(Cl)cc3)n2)cc1 | 1.45
82 | O=C(Nc1nc(-c2ccc(F)cc2)cs1)C1CCCO1 (stereo not shown) | 3.35
83 | COc1cc2[nH]c(=S)nc(NCc3cccs3)c2cc1OC | 12.2
84 | CC(C)C[C@H](NC(=O)C1CC(=O)N(c2ccc3c(c2)OCO3)C1)C(=O)NC1CCCCC1 (stereo partly shown) | 26.2
85 | C=CCNC(=O)c1onc(CSc2cc(C)cc(C)c2)c1C(=O)O | 9.31
86 | O=C(Cn1c(SCC(=O)N2CCc3ccccc3C2)nc2ccccc21)NC1CCCC1 | 7.98
87 | O=C(CCCCn1c(=O)[nH]c2ccsc2c1=O)NCc1ccc2c(c1)OCO2 | 4.87
88 | COc1ccc(-c2[nH]ncc2CN2CCC(OCc3ccccc3)CC2)c(F)c1 | -64.5
89 | CCC(CC)C(=O)Nc1cc(C)cc(C)c1 | 16.9
90 | CCCCNC(=O)c1cc2c(=O)n3cccc(C)c3nc2n(Cc2ccncc2)c1=N | -75.4
91 | CN(C(=O)CSc1ncccn1)C1CCS(=O)(=O)C1 (stereo not shown) | 11.6
